Data from the supplement of paper PMC4967469.
A lower IC50 marks a more sensitive line; where the fit passes the top or lowest dose, that dose stands as a limit. For AUC the same curve is integrated over the 256-fold range of doses and scaled to a fraction: 1 means no effect, lower means more sensitive. The top dose, if marked as inferred, was derived from the fitted curves, not read from the paper. For some of these results: Where an entry number is given, a second screen of the drug exists; the two often differ.

What was measured:
Test in all cases: Viability of human cancer cell lines after 72 h of drug (GDSC screen)
XMD11-85h = compound: COc1cc(C(=O)NC2CCN(C)CC2)ccc1Nc1ncc2c(n1)N(C1CCCC1)CCC(=O)N2C(C)C [XMD11-85h]; conditions: top dose 10 µM; top dose inferred
Description: (§1)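 Human cancer cell lines in 384-well plates, medium with 10% serum, drug for 72 h over a 256-fold dose range (nine 2-fold or five 4-fold steps up to the top dose). Adherent lines were fixed and stained with the nucleic acid dye Syto60, suspension lines read with resazurin; signal relative to control wells, capped at 0 and 100%. One two-parameter sigmoid per drug and line, fitted in a mixed model over all curves with the slope shared within a line.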

BMN-673 = compound: Cn1ncnc1[C@H]1c2n[nH]c(=O)c3cc(F)cc(c23)N[C@@H]1c1ccc(F)cc1 [BMN-673]; conditions: top dose 10 µM; top dose inferred
Description: as §1

MLN4924 = compound: NS(=O)(=O)OC[C@@H]1C[C@@H](n2ccc3c(N[C@H]4CCc5ccccc54)ncnc32)C[C@@H]1O [MLN4924]; conditions: top dose 1 µM; top dose inferred
Description: as §1

AZD6482 = compound: Cc1cc([C@@H](C)Nc2ccccc2C(=O)O)c2nc(N3CCOCC3)cc(=O)n2c1 [AZD6482]
Description: as §1

[1] = top dose 5 µM, screen: GDSC drug entry 1066, top dose inferred
[2] = top dose 5.12 µM, screen: GDSC drug entry 156

Cell Line | AUC (XMD11-85h) | IC50 (XMD11-85h) | AUC (BMN-673) | IC50 (BMN-673) | AUC (MLN4924) | IC50 (MLN4924) | AUC (AZD6482; [1]) | IC50 (AZD6482; [1]) | AUC (AZD6482; [2]) | IC50 (AZD6482; [2])
LB373-MEL-D (melanoma, adherent) | 0.982 | > 10 µM | 0.961 | > 10 µM | 0.959 | > 1 µM | 0.973 | > 5 µM | – | –
Mo-T (hairy cell leukaemia, suspension) | 0.956 | > 10 µM | 0.865 | 9.12 µM | 0.938 | > 1 µM | 0.782 | 2.14 µM | 0.988 | > 5.12 µM
A2780 (ovary, semi-adherent) | 0.983 | > 10 µM | 0.479 | 0.546 µM | 0.813 | 0.562 µM | 0.791 | 2.33 µM | 0.882 | > 5.12 µM
SJRH30 (rhabdomyosarcoma, adherent) | 0.931 | > 10 µM | 0.511 | 0.67 µM | 0.83 | 0.654 µM | – | – | 0.945 | > 5.12 µM
BB65-RCC (kidney, adherent) | 0.966 | > 10 µM | 0.707 | 2.63 µM | 0.635 | 0.156 µM | 0.923 | > 5 µM | 0.842 | 4.44 µM
SW872 (soft tissue, adherent) | 0.924 | > 10 µM | 0.754 | 3.08 µM | 0.853 | 0.669 µM | 0.803 | 2.2 µM | 0.884 | 4.6 µM
Hs939-T (melanoma, adherent) | 0.968 | > 10 µM | 0.885 | > 10 µM | 0.902 | > 1 µM | 0.887 | > 5 µM | 0.868 | > 5.12 µM
D-392MG (glioma, adherent) | 0.962 | > 10 µM | 0.745 | 4.16 µM | 0.743 | 0.407 µM | 0.871 | > 5 µM | 0.83 | 4.99 µM
OVISE (ovary, adherent) | 0.874 | > 10 µM | 0.884 | > 10 µM | 0.926 | > 1 µM | 0.898 | > 5 µM | 0.917 | > 5.12 µM
SK-MEL-30 (melanoma, adherent) | 0.906 | > 10 µM | 0.882 | > 10 µM | 0.91 | > 1 µM | – | – | 0.851 | 4.24 µM
NCI-H2141 (small cell lung carcinoma, suspension) | 0.99 | > 10 µM | 0.99 | > 10 µM | 0.99 | > 1 µM | 0.984 | > 5 µM | 0.958 | > 5.12 µM
huH-1 (liver, adherent) | 0.982 | > 10 µM | 0.72 | 3.1 µM | 0.78 | 0.516 µM | 0.874 | > 5 µM | 0.969 | > 5.12 µM
HCC1569 (breast, adherent) | 0.936 | > 10 µM | 0.743 | 4.02 µM | 0.662 | 0.206 µM | 0.834 | 4.93 µM | 0.811 | 3.91 µM
H3118 (head and neck, adherent) | 0.981 | > 10 µM | 0.687 | 2.2 µM | 0.681 | 0.211 µM | 0.854 | 4.54 µM | 0.899 | > 5.12 µM
LS-1034 (large intestine, adherent) | 0.968 | > 10 µM | 0.945 | > 10 µM | 0.985 | > 1 µM | 0.986 | > 5 µM | 0.985 | > 5.12 µM
SW1271 (small cell lung carcinoma, adherent) | 0.978 | > 10 µM | 0.828 | 7.46 µM | 0.796 | 0.549 µM | 0.974 | > 5 µM | 0.881 | > 5.12 µM
KGN (ovary, adherent) | 0.955 | > 10 µM | 0.638 | 1.64 µM | 0.885 | > 1 µM | 0.973 | > 5 µM | 0.746 | 1.93 µM
H513 (mesothelioma, semi-adherent) | 0.984 | > 10 µM | 0.894 | > 10 µM | 0.91 | > 1 µM | 0.962 | > 5 µM | 0.98 | > 5.12 µM
NCI-H716 (large intestine, suspension) | 0.835 | 9.09 µM | 0.979 | > 10 µM | 0.979 | > 1 µM | – | – | 0.98 | > 5.12 µM
OVCAR-4 (ovary, adherent) | 0.952 | > 10 µM | 0.813 | 9.18 µM | 0.913 | > 1 µM | 0.836 | > 5 µM | 0.833 | > 5.12 µM
NTERA-2 cl.D1 (testis, adherent) | 0.896 | > 10 µM | 0.094 | < 0.0391 µM | 0.894 | > 1 µM | 0.812 | 2.64 µM | 0.749 | 1.65 µM

Cell Line | AUC (XMD11-85h) | IC50 (XMD11-85h) | AUC (BMN-673) | IC50 (BMN-673) | AUC (MLN4924) | IC50 (MLN4924) | AUC (AZD6482; [1]) | IC50 (AZD6482; [1]) | AUC (AZD6482; [2]) | IC50 (AZD6482; [2])
NCI-H345 (small cell lung carcinoma, suspension) | 0.985 | > 10 µM | 0.982 | > 10 µM | 0.989 | > 1 µM | 0.986 | > 5 µM | 0.984 | > 5.12 µM
8-MG-BA (glioma, adherent) | 0.935 | > 10 µM | 0.202 | 0.0886 µM | 0.692 | 0.207 µM | 0.942 | > 5 µM | 0.814 | 2.58 µM
LB2518-MEL (melanoma, adherent) | 0.979 | > 10 µM | 0.802 | 5.22 µM | 0.918 | > 1 µM | 0.981 | > 5 µM | 0.962 | > 5.12 µM
SH-4 (melanoma, adherent) | 0.779 | 6.69 µM | 0.739 | 4.52 µM | 0.777 | 0.658 µM | 0.967 | > 5 µM | 0.899 | > 5.12 µM
KYAE-1 (oesophagus, suspension) | 0.9 | > 10 µM | 0.98 | > 10 µM | 0.983 | > 1 µM | 0.917 | > 5 µM | – | –
IST-SL2 (small cell lung carcinoma, suspension) | 0.987 | > 10 µM | 0.962 | > 10 µM | 0.943 | > 1 µM | 0.952 | > 5 µM | 0.9 | > 5.12 µM
NCI-H2347 (lung adenocarcinoma, adherent) | 0.918 | > 10 µM | 0.88 | > 10 µM | 0.811 | 0.678 µM | 0.828 | 4.01 µM | 0.897 | > 5.12 µM
LB2241-RCC (kidney, adherent) | 0.922 | > 10 µM | 0.649 | 1.71 µM | 0.68 | 0.212 µM | 0.685 | 1.11 µM | 0.905 | > 5.12 µM
DIFI (large intestine, adherent) | 0.986 | > 10 µM | 0.9 | > 10 µM | 0.912 | > 1 µM | 0.984 | > 5 µM | – | –
NCI-H1975 (lung adenocarcinoma, adherent) | 0.98 | > 10 µM | 0.896 | > 10 µM | 0.964 | > 1 µM | 0.957 | > 5 µM | 0.827 | 3.77 µM
KYSE-50 (oesophagus, adherent) | 0.975 | > 10 µM | 0.92 | > 10 µM | 0.923 | > 1 µM | 0.847 | 3.2 µM | 0.941 | > 5.12 µM
H2731 (mesothelioma, adherent) | 0.968 | > 10 µM | 0.832 | 7.74 µM | 0.839 | 0.828 µM | 0.954 | > 5 µM | 0.953 | > 5.12 µM
MOG-G-CCM (glioma, adherent) | 0.935 | > 10 µM | 0.85 | 9.56 µM | 0.869 | > 1 µM | 0.865 | > 5 µM | 0.772 | 2.31 µM
RO82-W-1 (thyroid, adherent) | 0.966 | > 10 µM | 0.853 | > 10 µM | 0.942 | > 1 µM | 0.859 | > 5 µM | 0.957 | > 5.12 µM
NB1 (neuroblastoma, semi-adherent) | 0.964 | > 10 µM | 0.635 | 1.54 µM | 0.957 | > 1 µM | 0.939 | > 5 µM | 0.907 | > 5.12 µM
SK-LU-1 (lung adenocarcinoma, adherent) | 0.948 | > 10 µM | 0.656 | 1.91 µM | 0.882 | > 1 µM | 0.875 | > 5 µM | 0.87 | > 5.12 µM
TE-10 (oesophagus, adherent) | 0.934 | > 10 µM | 0.859 | 7.99 µM | 0.903 | > 1 µM | 0.916 | > 5 µM | 0.851 | 3.81 µM
NCI-H524 (small cell lung carcinoma, suspension) | 0.963 | > 10 µM | 0.962 | > 10 µM | 0.979 | > 1 µM | 0.977 | > 5 µM | 0.988 | > 5.12 µM
no-10 (glioma, adherent) | 0.956 | > 10 µM | 0.849 | > 10 µM | 0.961 | > 1 µM | 0.936 | > 5 µM | 0.9 | > 5.12 µM
CL-34 (large intestine, adherent) | 0.986 | > 10 µM | 0.973 | > 10 µM | 0.809 | 0.588 µM | 0.987 | > 5 µM | – | –
RPMI-8866 (chronic myeloid leukaemia, suspension) | 0.913 | > 10 µM | 0.94 | > 10 µM | 0.625 | 0.135 µM | 0.615 | 0.631 µM | 0.988 | > 5.12 µM
